The results in this text go back to ChEMBL document CHEMBL1201862, “PubChem BioAssay data set” (2004).

The term GI50 denotes the concentration giving 50% growth inhibition.

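Protocol summary: plate cells (96-well), add compound at 5 concentrations, incubate 48 h, interpolate endpoints linearly. GI50 is the concentration that inhibits growth by half.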 Active and inactive are the calls of the source. Rule as the data show it: active = GI50 up to about 1.1 µM and inactive = higher. Some results are limits rather than exact numbers.

This experiment has as its system NCI-H322M. The experiment is described as follows: DTP human tumour cell line panel, 48 h.
Regarding `CC(=O)Nc1ccc2[nH]c(C(=O)N3CC(CCl)c4c3cc(N)c3ccccc43)cc2c1` (centres undefined), the GI50 was active: < 0.0211 µM.
Then `COc1ccc(NCc2c(O)ccc3ccccc23)cc1`, with inactive: > 100 µM; and `Sc1nnc(SCc2ccccc2Cl)c2nc[nH]c12`, with inactive: > 100 µM.
Then `O=C1OC2(c3ccc(O)cc3Oc3cc(O)ccc32)c2c1c(-c1ccccc1)c(-c1ccccc1)c(-c1ccccc1)c2-c1ccccc1`, with inactive: 21 µM.
Under `COc1ccccc1-c1cc(O)c2cc3c(cc2n1)OCO3` stands inactive: 53.7 µM; under `O=C(O)/C(Cc1c[nH]nn1)=N\O`, inactive: > 100 µM; under `CC1C(c2ccc3c(c2)OCO3)c2cc3c(cc2OC1N1CCOCC1)OCO3` (centres undefined), inactive: 47.6 µM.
As to `COc1cc(C2c3cc4c(cc3OC(NNC(N)=S)C2C)OCO4)cc(OC)c1OC` (centres undefined), the GI50 is active: 0.497 µM.
Turning to `CCOC(=O)C1=C(OC(OCC)C([Se]c2ccccc2)C(C)C)CCC1` (centres undefined), the GI50 was inactive: 60.8 µM.
Then `CC(NC(=O)c1ccccc1)NC(=O)C(C)C(=O)Nc1ccccc1` (centres undefined), with inactive: > 100 µM; and `O=c1[nH][nH]c(=O)n1Cc1ccccc1Cn1c(=O)[nH][nH]c1=O`, with inactive: > 100 µM; and `CC(C)(C)OC(=O)N1N=CCC1c1ccccc1` (centres undefined), with inactive: > 100 µM.
Under `CCNC1=C(NC(=O)c2ccc(F)cc2)C(=O)c2ccccc2C1=O` stands inactive: > 100 µM; under `COc1ccc(-c2nc(-c3cc4ccccc4oc3=O)cs2)cc1`, inactive: 36.1 µM; under `CC(=O)NNc1nc(C)c(C(=O)NNC(=O)C(=O)Nc2c(C)cccc2C(C)C)s1`, inactive: > 100 µM.
Then `COc1cc([C@@H]2c3cc4c(cc3[C@@H](NC(=O)c3cccc(N)c3)C3COC(=O)[C@@H]32)OCO4)cc(OC)c1O` (some centres undefined), with inactive: 10.2 µM.
Turning to `O=S(=O)(O)c1cc(Cl)c(O)c2ncc(Cl)cc12`, the GI50 was inactive: 50.1 µM.
Under `CSC(=O)/C=C1\SS/C(=C\C(=O)SC)S1` stands inactive: 8.63 µM; under `Cc1ccc(C(=O)C#Cc2cn(C3CC(O)C(CO)O3)c(=O)[nH]c2=O)cc1` (centres undefined), inactive: > 100 µM.
Under `CO/C(=C/C(=O)C(Cl)(Cl)Cl)CC/C(=C\C(=O)C(Cl)(Cl)Cl)OC` stands inactive: 29.7 µM; under `CC(=O)c1ccc(OCC(O)CO)cc1` (centres undefined), inactive: > 100 µM; under `COc1cccc(NC(=O)C(C#N)=C(SC)SC)c1`, inactive: 74 µM.
Under `CC1=NC(C)(C)[N+]([O-])=C1` stands inactive: > 10 µM; under `Clc1ccc(C2=NOC3C4CCC(C4)C23)cc1` (centres undefined), inactive: > 100 µM; under `CC(=O)Nc1ccc(C(=O)NN2C(=O)C(Cl)C2c2cc(Br)cc(Br)c2O)cc1` (centres undefined), inactive: > 100 µM.
On to `CCOC(=O)[C@@H]1ON2OC(OC3CCCC3(c3ccccc3)c3ccccc3)C(OC(C)=O)[C@H]3OC(=O)[C@@H]1C32` (some centres undefined), for which the GI50 was inactive: > 100 µM.
Under `C=C(C)C(=O)O[C@H]1[C@H]2[C@H](OC(=O)[C@H]2C)[C@H](O)[C@@H](C)[C@@H]2C=CC(=O)[C@]21C` stands inactive: 3.03 µM; under `C[C@@H](NC(=O)OC1C=CC2(CC1)C(=O)N(C)c1ccccc12)c1cccc2ccccc12` (some centres undefined), inactive: > 25 µM.
Under `O=C1OC2(CC1C1(O)C3CC4CC(C3)CC1C4)C1CC3CC(C1)CC2C3` (centres undefined) stands inactive: 21.4 µM; under `COc1ccc(N2C(=O)/C(=C\c3cccc(Oc4ccccc4)c3)SC2c2ccccc2)cc1` (centres undefined), inactive: > 100 µM.
Under `N#CCCN(CCNc1ccccc1)C(=O)Nc1ccc(NC(=O)N(CCC#N)CCNc2ccccc2)cc1` stands inactive: > 88.3 µM; under `c1ccc(C2=NOC3C4CCC(C4)C23)cc1` (centres undefined), inactive: > 100 µM.
Consider `CN(c1ccc(C(=O)c2ccc(N(C)S(C)(=O)=O)cc2)cc1)S(C)(=O)=O`, for which the GI50 is inactive: > 100 µM.
Then `Cc1cc(Cl)ccc1NC(=O)C1C(=O)N(c2ccc(Cl)cc2C)C(=O)/C1=N\NC(N)=S` (centres undefined), with inactive: 36.6 µM.
With `CS(=O)(=O)OCC(CCl)(CCl)CCl`, the GI50 was inactive: > 100 µM.
Then `CN(NC(=O)/C(=C/C=C/c1ccccc1)NC(=O)c1ccccc1)C1=C(Cl)C(=O)[N+](c2ccccc2)=CC1`, with inactive: 36.1 µM.
Then `N#CN=C(NCCO)NCCO`, with inactive: > 100 µM; and `CCCc1c[nH]c(-c2ccc(-c3cc(CCC)c(C=O)[nH]3)s2)c1`, with inactive: 16.2 µM; and `CC(C)(C)C(=O)Nc1ccccc1Br`, with inactive: > 100 µM.
Under `Cn1c2c3ccc(Cl)cc3nc-2c(Cl)c2ccccc21` stands inactive: 48.6 µM; under `CC(=O)O[C@H]1CC[C@H]2[C@@H]3CCC4=C/C(=N/OCCN(C)C)CC[C@]4(C)[C@H]3CC[C@]12C`, inactive: 12.5 µM.
Regarding `O=CNc1ccc2c(c1)C(=O)c1ccccc1-2`, the GI50 is inactive: 64.6 µM.
Turning to `C=C1CCC2C(C)(CO)C(O)CCC2(C)C1CC(O)C1=CCOC1=O` (centres undefined), the GI50 is inactive: 49.3 µM.
Then `COC(=O)C(C(=O)C(=O)NC1=C(Cl)C(=O)c2ccccc2C1=O)c1csc(-n2nc(-c3ccccc3)cc2-c2ccccc2)n1` (centres undefined), with inactive: > 100 µM; and `S=C1CSc2c(cnc3ccccc23)N1`, with inactive: > 100 µM; and `CC(=O)CCC[C@H](C)[C@@H](O)[C@@H]1O[C@H]([C@@]2(C)CCC(=O)O2)C[C@H]1C(=O)O`, with inactive: > 100 µM.
On to `S=c1ssc2c3ssc(=S)c3n(Cc3ccccc3)c12`, for which the GI50 was inactive: > 100 µM.
As to `COC(=O)C1(CCCCCBr)CCCCCCCCCCC1=O` (centres undefined), the GI50 is inactive: 25.8 µM.
Then `Cn1c2c([N+](=O)[O-])cccc2c(=O)c2c(O)cc3c(c21)C=CC(C)(C)O3`, with inactive: 72.1 µM; and `CN(CCSCCN(C)C(=O)OC(C)(C)C)C(=O)OC(C)(C)C`, with inactive: > 100 µM.
Under `Cc1nc(C)c(N2CCN(CN)CC2)c(O)n1` stands inactive: > 100 µM; under `Cc1ccc(/N=N/C(=N\NC(=O)c2ccc(C)cc2)c2ccc(N(CCC#N)CCC#N)cc2C)cc1`, inactive: 43.9 µM.
Turning to `O=C1CCN2c3ccccc3[C@H]3Cc4cccc(c4[C@@H]2C3)CCO1`, the GI50 was inactive: 97.1 µM.
`CN1CCN(/C(N)=C(\C#N)C(=O)Nc2ccccc2)CC1`: the GI50 was inactive: > 100 µM.
Then `O=C1c2cccc3cccc(c23)C(=O)N1CCCNCCCNCCCCNCCCNCCCN1C(=O)c2cccc3cccc(c23)C1=O`, with inactive: 2.88 µM; and `Cc1cccc2oc3c(CC(=O)O)cccc3c(=O)c12`, with inactive: > 100 µM; and `C[O+]=C1C=CC(=C2SC(c3ccccc3)(c3ccccc3)c3ccccc32)C=C1.[O-][Cl+3]([O-])([O-])[O-]`, with inactive: 25.6 µM.
Take `Cc1nc(-n2nc(-c3ccccc3)cc2-c2ccccc2)sc1C(=O)/C=C/c1ccc(Cl)c(Cl)c1`: the GI50 was inactive: 19.5 µM.
Then `O=C1Cc2c([nH]c3ccc(Br)cc23)-c2cc(Br)ccc2N1`, with inactive: > 100 µM.
